Results: PubChem BioAssay AID1569 (National Center for Advancing Translational Sciences (NCATS), 2009)
The shares of active, inactive and inconclusive entries below differ from those in the screen. A potency beside an inconclusive call is a rough fit, not a confirmed value. Activity calls are given as the source filed them. Calls follow the shape of the dose curve; as a rule, active = well fitted inhibition curve with a large enough effect; inconclusive = small, poorly fitted or top-dose-only effect, or effect the other way, or another doubt; inactive = no such curve, though single readings can be large or run the other way.

test: Confirmation Concentration-Response Assay for lipid storage modulators; settings: Drosophila S3 cells, lipid droplet BODIPY/CellTracker ratio, 18-24 h; activity change, negative = inhibition: at 46.1 µM (top of the series); also: nearly all actives have a fitted effect of over 80% in size;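 as to activity change, negative = inhibition: -100% = full block of lipid deposition by 20 µM Triacsin C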
Summary of the method: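 Cells at 5,000/well received compound as a titration plus oleic acid (added as 400 uM solution) and were incubated 18–24 h at 24 °C. BODIPY 493/503 lipid signal and CellTracker Red cell count were read by 488-nm laser-scanning cytometry. Activity was normalised to 20 uM Triacsin C.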
Potency is read from the fitted curve at half-maximal effect; tags tell the direction and shape of the fitted curve.

| SMILES | Potency | activity change, negative = inhibition |
| --- | --- | --- |
| CCCN=C1NC(=O)C(CC(=O)NCCc2ccc(OC)c(OC)c2)S1 (configuration not stated) | inconclusive: 7050 nM [activator, partial curve, poor fit] | – |
| Cc1ccccc1-n1ncc(C(C)NC(=O)c2ccco2)c1C (configuration not stated) | active: 396 nM | – |
| Cc1cc(C)c(C)c(S(=O)(=O)N2CCC(C(=O)Nc3ccc(S(=O)(=O)N4CCOCC4)cc3)CC2)c1C | inconclusive: 9960 nM [falling, full curve, poor fit] | – |
| Nc1c(C(=O)C2CC2)sc2nc(-c3ccccc3)cc(C(F)(F)F)c12 | active: 1580 nM | – |
| CCOC(=O)c1c(C)[nH]c(C(=O)OCC(=O)Nc2cc(C)c(Cl)cc2OC)c1C | inconclusive: 1120 nM [activator, full curve, poor fit] | – |
| COc1cc(CC(=O)Nc2ncc(C)s2)cc(OC)c1OC | inconclusive: 2230 nM [activator, partial curve] | – |
| Cc1ccc(-c2noc(C3CCCN(C(=O)c4ccccc4Br)C3)n2)cc1 (configuration not stated) | – | inactive: -18.5% [at 30.7 µM] |
| Cc1ccc(C)c2[nH]c(=O)c(CCNC(=O)c3ccc(S(=O)(=O)N(C)C)cc3)cc12 | inconclusive: 1580 nM [activator, full curve] | – |
| Cc1cc(OCC(=O)Nc2ccc3oc(-c4ccncc4)nc3c2)ccc1Cl | inconclusive: 1120 nM [activator, full curve] | – |
| COc1ccc(CCNC(=O)Cn2cccc2C(=O)c2ccccc2C)cc1OC | – | inactive: -1.33% |
| COc1ccc(CC(=O)NCCc2ccc(OC)c(OC)c2)cc1 | – | inactive: 12.7% |
| CC1(C)CC2CC(C)(CN2S(=O)(=O)c2ccc(C(=O)Nc3ccc(Cl)c(S(=O)(=O)N4CCOCC4)c3)cc2)C1 (configuration not stated) | inconclusive: 35300 nM [falling, single point] | – |
